In assay [1] the target is T1, TMEM67-Nt protein, wild type (amino acids F39-T478) (human) (UniProt Q5HYA8).
T1 sequence: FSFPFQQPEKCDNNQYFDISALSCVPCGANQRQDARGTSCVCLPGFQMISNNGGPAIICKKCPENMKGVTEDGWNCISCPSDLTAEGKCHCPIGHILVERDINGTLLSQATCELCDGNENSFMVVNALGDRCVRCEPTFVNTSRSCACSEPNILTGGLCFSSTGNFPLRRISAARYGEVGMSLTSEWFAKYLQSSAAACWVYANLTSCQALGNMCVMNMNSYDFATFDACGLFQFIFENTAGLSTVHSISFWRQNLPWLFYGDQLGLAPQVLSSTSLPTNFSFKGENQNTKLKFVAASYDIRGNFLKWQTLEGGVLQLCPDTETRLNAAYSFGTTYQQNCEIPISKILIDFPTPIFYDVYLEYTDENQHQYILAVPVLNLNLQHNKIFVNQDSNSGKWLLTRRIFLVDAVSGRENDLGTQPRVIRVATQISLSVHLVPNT
Description: in vitro plate binding assay with fluorescein-labelled protein; TMEM67-Nt proteins coated on Immunosorb 96-well plates in 100 mM bicarbonate/carbonate buffer pH 9.6 overnight at 4°C, blocked with 5% non-fat dried milk in PBS; fluorescence-labelled proteins in blocking buffer 2 h at room temperature, washed with PBS; retained fluorescence read; increasing amounts of TMEM67-Nt; purification of TMEM67-Nt not described; only the binder purified.

By UniProt entry, the sequences of proteins in these tests, tags left out. Residues count along the entry.
UniProt P02769, residues 25-607: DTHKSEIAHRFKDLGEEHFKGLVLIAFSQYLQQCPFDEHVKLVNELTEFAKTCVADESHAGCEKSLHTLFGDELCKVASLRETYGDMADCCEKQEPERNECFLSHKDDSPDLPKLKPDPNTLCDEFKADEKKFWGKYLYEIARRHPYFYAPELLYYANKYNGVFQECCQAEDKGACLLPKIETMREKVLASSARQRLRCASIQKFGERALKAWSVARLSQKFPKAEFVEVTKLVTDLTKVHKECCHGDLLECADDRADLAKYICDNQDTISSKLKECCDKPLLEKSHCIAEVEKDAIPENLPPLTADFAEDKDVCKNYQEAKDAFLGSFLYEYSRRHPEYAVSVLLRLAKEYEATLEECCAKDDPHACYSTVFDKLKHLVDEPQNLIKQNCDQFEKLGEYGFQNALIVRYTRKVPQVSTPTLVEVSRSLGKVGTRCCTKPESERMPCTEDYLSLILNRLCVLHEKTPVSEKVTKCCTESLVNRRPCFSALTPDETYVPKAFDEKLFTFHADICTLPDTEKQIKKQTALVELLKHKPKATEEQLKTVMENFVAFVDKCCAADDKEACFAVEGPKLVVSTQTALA
UniProt Q9Z138, residues 34-944: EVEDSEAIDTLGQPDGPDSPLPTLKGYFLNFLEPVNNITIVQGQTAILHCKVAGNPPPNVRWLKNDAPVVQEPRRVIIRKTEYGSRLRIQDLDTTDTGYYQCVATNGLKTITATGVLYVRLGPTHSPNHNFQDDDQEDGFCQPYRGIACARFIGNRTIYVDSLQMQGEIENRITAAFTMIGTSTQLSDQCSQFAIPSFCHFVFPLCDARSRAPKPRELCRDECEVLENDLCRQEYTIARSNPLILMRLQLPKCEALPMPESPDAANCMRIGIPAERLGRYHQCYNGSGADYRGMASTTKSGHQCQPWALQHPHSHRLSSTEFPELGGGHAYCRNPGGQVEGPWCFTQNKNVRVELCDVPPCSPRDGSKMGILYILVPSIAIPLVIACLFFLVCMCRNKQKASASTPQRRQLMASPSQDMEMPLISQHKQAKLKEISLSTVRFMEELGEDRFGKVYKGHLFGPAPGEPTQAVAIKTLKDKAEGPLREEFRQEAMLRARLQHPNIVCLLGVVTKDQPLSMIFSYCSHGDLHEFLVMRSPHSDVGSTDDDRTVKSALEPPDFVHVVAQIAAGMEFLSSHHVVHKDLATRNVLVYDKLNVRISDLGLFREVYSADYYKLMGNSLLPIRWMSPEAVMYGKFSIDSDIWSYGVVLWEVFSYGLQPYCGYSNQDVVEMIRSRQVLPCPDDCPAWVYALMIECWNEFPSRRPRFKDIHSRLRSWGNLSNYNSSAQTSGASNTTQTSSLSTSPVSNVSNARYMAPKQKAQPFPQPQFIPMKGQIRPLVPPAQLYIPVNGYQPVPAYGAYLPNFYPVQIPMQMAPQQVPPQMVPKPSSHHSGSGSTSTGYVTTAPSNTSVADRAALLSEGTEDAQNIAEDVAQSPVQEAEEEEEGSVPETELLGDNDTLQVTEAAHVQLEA

Assay [2] concerns the target endogenous TMEM67 (not stated (endogenous in HEK293 or IMCD3 cells)) (UniProt Q5HYA8). Description: co-IP; immunoprecipitation with rabbit anti-TMEM67 (endogenous TMEM67) from whole-cell extracts of cells transfected with FLAG-tagged constructs; controls no antibody and irrelevant goat and rabbit polyclonal antibodies; immunoblot anti-FLAG.
The target of another assay is T2, HA-tagged MCPH1 (UniProt Q8NEM0).
T2 sequence: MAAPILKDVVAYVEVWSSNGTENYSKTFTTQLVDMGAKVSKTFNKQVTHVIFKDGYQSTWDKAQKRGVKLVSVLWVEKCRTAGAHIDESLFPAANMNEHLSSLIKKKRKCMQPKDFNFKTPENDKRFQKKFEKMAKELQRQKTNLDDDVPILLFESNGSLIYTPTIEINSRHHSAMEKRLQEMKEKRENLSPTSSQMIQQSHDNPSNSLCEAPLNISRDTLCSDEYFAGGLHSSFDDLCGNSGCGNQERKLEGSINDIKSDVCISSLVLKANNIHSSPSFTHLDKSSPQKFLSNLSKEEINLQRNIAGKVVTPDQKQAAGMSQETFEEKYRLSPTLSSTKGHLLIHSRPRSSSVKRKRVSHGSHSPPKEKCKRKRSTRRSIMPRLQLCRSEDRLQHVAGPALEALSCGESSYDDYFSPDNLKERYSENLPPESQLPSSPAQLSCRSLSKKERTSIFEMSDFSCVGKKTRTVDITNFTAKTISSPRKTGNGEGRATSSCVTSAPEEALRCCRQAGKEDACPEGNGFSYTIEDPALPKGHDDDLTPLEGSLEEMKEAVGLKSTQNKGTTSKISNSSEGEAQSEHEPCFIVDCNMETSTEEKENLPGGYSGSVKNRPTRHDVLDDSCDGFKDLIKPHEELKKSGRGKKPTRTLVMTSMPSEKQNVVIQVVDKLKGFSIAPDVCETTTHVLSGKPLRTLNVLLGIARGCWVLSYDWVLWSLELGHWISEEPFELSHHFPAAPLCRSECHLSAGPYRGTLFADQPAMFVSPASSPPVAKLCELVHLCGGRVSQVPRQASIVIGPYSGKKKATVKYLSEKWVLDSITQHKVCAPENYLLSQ
Description: co-IP; anti-HA immunoprecipitation from whole-cell extracts of cells transfected with HA-tagged and FLAG-tagged constructs; immunoblot anti-FLAG and anti-TMEM67. Background: A western blot detects proteins with antibodies after separation by electrophoresis.

For assay [3], the target named is full-length exogenous HA-tagged TMEM67 (human) (UniProt Q5HYA8). Described as above.
In assay [4] the target is T3, TMEM67-Nt protein (F39-T478) with missense mutation R440Q (human) (UniProt Q5HYA8).
T3 sequence: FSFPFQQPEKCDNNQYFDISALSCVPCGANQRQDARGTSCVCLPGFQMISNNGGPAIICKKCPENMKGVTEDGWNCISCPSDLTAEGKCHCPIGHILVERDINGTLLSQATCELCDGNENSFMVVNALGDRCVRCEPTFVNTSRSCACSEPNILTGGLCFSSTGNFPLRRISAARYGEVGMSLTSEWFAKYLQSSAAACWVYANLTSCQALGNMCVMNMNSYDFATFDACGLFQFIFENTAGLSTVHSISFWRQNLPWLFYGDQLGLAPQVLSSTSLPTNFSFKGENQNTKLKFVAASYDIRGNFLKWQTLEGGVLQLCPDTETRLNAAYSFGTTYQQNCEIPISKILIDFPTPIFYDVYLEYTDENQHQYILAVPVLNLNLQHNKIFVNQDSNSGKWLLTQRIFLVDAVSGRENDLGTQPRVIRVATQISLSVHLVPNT
Description: in vitro plate binding assay with fluorescein-labelled protein; TMEM67-Nt proteins coated on Immunosorb 96-well plates in 100 mM bicarbonate/carbonate buffer pH 9.6 overnight at 4°C, blocked with 5% non-fat dried milk in PBS; fluorescence-labelled proteins in blocking buffer 2 h at room temperature, washed with PBS; retained fluorescence read; increasing amounts of TMEM67-Nt; purification of TMEM67-Nt not described; only the binder purified.

Assay [5] addresses T4, TMEM67-Nt protein (F39-T478) with missense mutation L349S (human) (UniProt Q5HYA8).
T4 sequence: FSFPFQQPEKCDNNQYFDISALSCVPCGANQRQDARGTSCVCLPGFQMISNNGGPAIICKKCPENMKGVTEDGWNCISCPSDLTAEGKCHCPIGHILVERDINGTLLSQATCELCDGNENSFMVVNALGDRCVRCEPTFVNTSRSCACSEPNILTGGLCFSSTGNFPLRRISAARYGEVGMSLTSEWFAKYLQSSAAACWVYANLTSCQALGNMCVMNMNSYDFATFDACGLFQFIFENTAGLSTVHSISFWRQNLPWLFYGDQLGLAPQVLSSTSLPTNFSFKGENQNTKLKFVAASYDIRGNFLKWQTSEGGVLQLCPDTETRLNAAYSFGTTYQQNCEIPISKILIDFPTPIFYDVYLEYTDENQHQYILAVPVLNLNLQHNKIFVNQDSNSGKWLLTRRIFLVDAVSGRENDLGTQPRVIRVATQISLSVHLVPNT
Described as above.

For assay [6], the target named is T1, TMEM67-Nt protein, wild type (amino acids F39-T478) (human). The assay is described as above. The source holds these as a separate data set.
Assay [7] concerns the target T5, TMEM67-Nt protein (F39-T478) with missense mutation M252T (human) (UniProt Q5HYA8).
T5 sequence: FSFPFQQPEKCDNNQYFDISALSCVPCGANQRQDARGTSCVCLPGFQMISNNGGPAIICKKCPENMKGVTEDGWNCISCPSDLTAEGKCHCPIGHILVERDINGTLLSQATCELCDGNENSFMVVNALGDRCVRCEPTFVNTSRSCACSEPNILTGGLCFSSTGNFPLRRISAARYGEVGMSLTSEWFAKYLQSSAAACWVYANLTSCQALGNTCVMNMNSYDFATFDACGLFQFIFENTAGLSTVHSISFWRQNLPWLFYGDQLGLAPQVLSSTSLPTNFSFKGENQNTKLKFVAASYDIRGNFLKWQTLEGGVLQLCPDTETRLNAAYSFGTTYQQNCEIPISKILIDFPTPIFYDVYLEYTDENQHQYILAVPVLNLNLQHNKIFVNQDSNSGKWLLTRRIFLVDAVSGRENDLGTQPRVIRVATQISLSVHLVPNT
Described as above.

For assay [8], the target named is T6, TMEM67-Nt protein (F39-T478) with missense mutation Q376P (human) (UniProt Q5HYA8).
T6 sequence: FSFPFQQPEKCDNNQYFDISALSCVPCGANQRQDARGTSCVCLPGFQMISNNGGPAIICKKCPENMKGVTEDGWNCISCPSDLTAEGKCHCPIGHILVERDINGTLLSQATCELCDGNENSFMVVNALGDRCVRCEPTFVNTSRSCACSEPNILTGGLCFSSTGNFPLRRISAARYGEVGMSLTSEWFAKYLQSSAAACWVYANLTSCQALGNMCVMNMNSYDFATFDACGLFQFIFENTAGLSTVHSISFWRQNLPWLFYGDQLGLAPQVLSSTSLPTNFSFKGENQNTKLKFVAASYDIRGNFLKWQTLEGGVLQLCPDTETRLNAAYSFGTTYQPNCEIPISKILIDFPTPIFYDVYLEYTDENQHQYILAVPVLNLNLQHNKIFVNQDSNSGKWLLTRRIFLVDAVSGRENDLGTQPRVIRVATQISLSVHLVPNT
The assay is described as above.

Like-named read-outs stand apart in the source and are kept apart here. These are yes or no findings as the source states them, for the method shown. For some of these results: Binding seen in cells or lysates may run through a third protein. Some binding calls cover weakened binding; strength is not graded here. For some of these results: Sequences can lack the tags named with a protein.

On to “fluorescein-labelled purified BSA (from UniProt P02769 25-607)”, for which the binding result in assay [1] is reported as “no binding”.
In the case of “FLAG-tagged ROR2 (receptor-tyrosine-kinase-like orphan receptor 2) (from UniProt Q9Z138 34-944)”, the binding result in [2] is on record as “binds”; in the assay with HA-tagged MCPH1, “no binding”; in assay [3], “binds”.

B1: FLAG-MCPH1 (protein, UniProt Q8NEM0 1-835)
chain: MAAPILKDVVAYVEVWSSNGTENYSKTFTTQLVDMGAKVSKTFNKQVTHVIFKDGYQSTWDKAQKRGVKLVSVLWVEKCRTAGAHIDESLFPAANMNEHLSSLIKKKRKCMQPKDFNFKTPENDKRFQKKFEKMAKELQRQKTNLDDDVPILLFESNGSLIYTPTIEINSRHHSAMEKRLQEMKEKRENLSPTSSQMIQQSHDNPSNSLCEAPLNISRDTLCSDEYFAGGLHSSFDDLCGNSGCGNQERKLEGSINDIKSDVCISSLVLKANNIHSSPSFTHLDKSSPQKFLSNLSKEEINLQRNIAGKVVTPDQKQAAGMSQETFEEKYRLSPTLSSTKGHLLIHSRPRSSSVKRKRVSHGSHSPPKEKCKRKRSTRRSIMPRLQLCRSEDRLQHVAGPALEALSCGESSYDDYFSPDNLKERYSENLPPESQLPSSPAQLSCRSLSKKERTSIFEMSDFSCVGKKTRTVDITNFTAKTISSPRKTGNGEGRATSSCVTSAPEEALRCCRQAGKEDACPEGNGFSYTIEDPALPKGHDDDLTPLEGSLEEMKEAVGLKSTQNKGTTSKISNSSEGEAQSEHEPCFIVDCNMETSTEEKENLPGGYSGSVKNRPTRHDVLDDSCDGFKDLIKPHEELKKSGRGKKPTRTLVMTSMPSEKQNVVIQVVDKLKGFSIAPDVCETTTHVLSGKPLRTLNVLLGIARGCWVLSYDWVLWSLELGHWISEEPFELSHHFPAAPLCRSECHLSAGPYRGTLFADQPAMFVSPASSPPVAKLCELVHLCGGRVSQVPRQASIVIGPYSGKKKATVKYLSEKWVLDSITQHKVCAPENYLLSQ
As to B1, in assay [2], the binding entry is “no binding”.

B2: fluorescein-labelled purified recombinant Wnt5a (ligand, UniProt P22725 62-380)
chain: IIGAQPLCSQLAGLSQGQKKLCHLYQDHMQYIGEGAKTGIKECQYQFRHRRWNCSTVDNTSVFGRVMQIGSRETAFTYAVSAAGVVNAMSRACREGELSTCGCSRAARPKDLPRDWLWGGCGDNIDYGYRFAKEFVDARERERIHAKGSYESARILMNLHNNEAGRRTVYNLADVACKCHGVSGSCSLKTCWLQLADFRKVGDALKEKYDSAAAMRLNSRGKLVQVNSRFNSPTTQDLVYIDPSPDYCVRNESTGSLGTQGRLCNKTSEGMDGCELMCCGRGYDQFKTVQTERCHCKFHWCCYVKCKKCTEIVDQFVCK
modifications: labelled with NHS-fluorescein
Consider B2, for which the binding result in assay [4] is on record as “no binding”; in assay [5], “no binding”; in assay [6], “binds”; in assay [7], “no binding”; in assay [8], “no binding”.

For the origin of these results see PMC4457033.
